Laboratory results as given in the RNAGym collection of RNA variant scans (doi:10.7554/elife.90254).
The source gives no read counts; variants with many changes may rest on few reads.

B1: LINE1-full (parent)
chain: UACGUAGGUGGUUUUCCCCUGAUAGUGCUAAGGGGGCCUGGAAGUUUGGACUGGGCAGAGCUCAACACAGCGUGGCAAAGUGGCUGUGGCUAGACUGCCUCUCUGGAUUCCUCGUCACUCAGCAGGGCAUCUCUGAGAGAAAUGCC

Variants of: B1
Experiment: self-cleavage, relative activity (ratio to wild type); higher = more cleavage; in vitro, sequencing; the parent is a self-cleaving ribozyme

| Variant | self-cleavage |
| --- | --- |
| U1A C16U U87A A117G A124G U132C | 0 |
| U45A A92G A138G | 0.05 |
| A69G G74A U108C U130C | 0.65 |
| U13C A67G U104C A121G | 0 |
| U1C U13C A22G | 0.46 |
| A59G U81C A138G | 0 |
| A24U G34A G125A A140G | 1.11 |
| G105A U109C A129G | 1.09 |
| U73A A78G U81C A138G | 0.52 |
| A79G U87A U109C U130A | 0.02 |
| U26A U29C U112C A142G | 1.89 |
| U14C A59G A69U | 0 |
| U20C U112C A129U | 0.66 |
| A79U U119C U132A | 2.82 |
| U29C A42U U134C U143A | 1.3 |
| U12G G74A A136G | 0.84 |
| U15A U73C U119C U143C | 1.4 |
| U15G U112C A129G A140G A142G | 0 |
| G21A A30G C51A A69U G72A A138G | 0.08 |
| U20C A65G A77G A138G | 0 |
| U15A A78G C128U | 0.84 |
| A24G A43G U96C C131A | 0.43 |
| U47C A59G U108C | 0 |
| U5C U13C U14C C111U U115C C123A A141G | 0.8 |

| Variant | self-cleavage |
| --- | --- |
| U115C A142G U143C | 1.79 |
| U14A U47C A78G | 1.78 |
| A22U U29C A31U | 1.31 |
| G34A U46G U96C | 0.05 |
| C16U U62C U100C | 0.09 |
| A22G A31G U115C | 2.12 |
| A57G U85G U91A U134C | 0 |
| U15C U23C A77G A136G U143C | 0.88 |
| U12A U15C A77G | 1.72 |
| U1C U14C G21U U96C | 0.07 |
| G10U U20C G32A G122U A136U A142G | 1.14 |
| A64G A79G G127A | 0.21 |
| C76U U115A U134C | 0.98 |
| U13C U23A U39A U109C A136G | 1.48 |
| U39A U52C A57U U115A A141G | 0.4 |
| U15A G27A U29C A43G A77U | 0.48 |
| U39A A78G U112C A140U | 0.65 |
| U39A C66U A78G U85A G89A A142G | 0.01 |
| U1C A107G U119C A136G | 0.63 |
| U15C A121C A140U | 1.15 |
| A31G G33U C99U | 0.61 |
| U15C U26G U39C A138G | 1.45 |
| U12C U14G A42U G125U | 0.89 |
| U23C A121G A141G | 2.3 |

| Variant | self-cleavage |
| --- | --- |
| A30G U96C U132A | 0.08 |
| A50G A59U A142G | 0.89 |
| C71U A77G U96A U134A | 0.03 |
| A59G A65G G80A U100C | 0.04 |
| A43G G48A U81A A141G | 1.96 |
| A30U C63U A141G | 0.35 |
| U5C U81A U119C | 1.72 |
| A31U A64G U134A | 0.29 |
| U52C A59U A94G | 2.51 |
| U12C C51A U52A U130A A142U | 1.24 |
| U9A C71U C113U | 0.58 |
| U12C A77U A107G A124G A141G | 1.25 |
| U12C U26C C61U A141G | 0.07 |
| U14C U39A A77U U115C A140U | 0.99 |
| U47G A94G A136G | 0.21 |
| A67G U119A A136U A140G A141G | 0 |
| U29C A121G C123U A141U | 1.76 |
| A22G A30G U46C A64U | 0.66 |
| A2G A24U A65G U100C U104A C118U | 0.18 |
| A67G G72A U134C | 0.6 |
| C99A U134C U143C | 0.26 |
| U13C C19U A121U A136G | 0.69 |
| U12C A22U A50G A59G U62A | 0 |
| U13C U20C U81A A121G G126U | 2.53 |

| Variant | self-cleavage |
| --- | --- |
| A22G G33U A141G | 1.39 |
| A124G A129G A138G | 0.93 |
| U73C G75A A107U G137U | 1.12 |
| U9C U52A G86U | 0.14 |
| U9C A67G C68A A77G | 0.15 |
| A42G A117G A129G | 1.58 |
| U45C U87A A94U A138U | 0.03 |
| U20C A42G A79G | 2.04 |
| U26C A65U U112C A121G A129U | 0.41 |
| U20C A42G G127A | 1.77 |
| U5C U46A A117U | 1.01 |
| U47A A64U U130C | 0.31 |
| A50G A65G U119C | 0 |
| A64U U81C U96C A129G | 0.19 |
| G40U A78G A94C | 0.14 |
| U14C C38U U46C | 1.36 |
| A57G U119C A129U | 1.62 |
| U26C C37U A57G U85G | 0.04 |
| U15C U96A U115C A141G | 0.24 |
| U1A U5C U62C G105U U119C | 0 |
| U26C A30G U39C | 0.32 |
| U15A A64G A69U U100C | 0.34 |
| A2G U52C A77G | 0 |
| U26A G32C A59C | 1.57 |

| Variant | self-cleavage |
| --- | --- |
| U14A G34A A117G | 1.21 |
| C110A U134C A138G | 1.08 |
| G8U U85A U108C U134C | 0.07 |
| A79G A92U A141G | 0.39 |
| U62C A77U G126C U134C | 0.1 |
| A24U A43G U100C | 2.07 |
| U20C U46C A78G A129G | 1.91 |
| A22G C131A A142G | 0.56 |
| C19U A67G C71U | 0.17 |
| U52C U91C U112A | 0.89 |
| U5C A69G U115C | 1.31 |
| G8A A43G G55A A69G A142C | 0.2 |
| A77G U115C A138G | 2.63 |
| A2G U102A U104A U112A | 1.25 |
| A2G U96C U102C U119A A121U | 0 |
| C19U U85A A138G | 0.16 |
| U13C U62C U81C U100C | 0 |
| A69G C76G A121G A141U | 0.98 |
| G40A G55U U96A | 0.02 |
| U13C U15C A77U U134C | 0.27 |
| U46C A94G A117U A121U | 0.44 |
| U14C A43G U73A A124G | 1.41 |
| U26C A64G A79G U134C | 0 |
| U15C U109C A138G | 1.15 |

| Variant | self-cleavage |
| --- | --- |
| A42U U104C A138G | 2.02 |
| U13G A22G C56G A78U U100C G144A C146G | 0.68 |
| U14C U115C A124U U134A | 1.55 |
| A2G A24U A59G | 0.41 |
| A6G U9C U15G U85G G93A C110U | 0.44 |
| U1C U23A G54A U96A U109C C145A | 0.04 |
| U62A U109A U143C | 0.05 |
| A31G U62A U73A U91C U104A | 0.17 |
| U9A A57G A69G A121G | 0 |
| U14A C61U G125U | 0.04 |
| U100C U104A C116U | 1.67 |
| U14A U46C U100C C113U A117G | 2.22 |
| C38U G55U A141G | 0.26 |
| U1C G32U A94G | 0.26 |
| U5C U23C G41A | 1.02 |
| A2G U13C U109C | 0.84 |
| U12G A57U A67U A77G C131U | 0.13 |
| U13C A42U U62C U102C | 0.14 |
| U13C A92G G105A | 0.04 |
| A57U U62C G70A | 0.09 |
| A42G U73A U102C A138G | 1.76 |
| A78U G97A G114A C128U | 0.08 |
| A117U U132C U143C | 1.87 |
| U14C G48A U87C | 0.21 |

| Variant | self-cleavage |
| --- | --- |
| U20A U52G A77U | 0.41 |
| G4U U5C U26A G53A A92U U109C | 0.36 |
| G72A U91C U134C | 0.92 |
| U15C C51A U132C | 1.78 |
| U15C A42G C68U U87A | 0.03 |
| A2G C16U U52C | 0 |
| U52A G54A U115C A121G A138G | 0.97 |
| U45C A136G A141G | 0.81 |
| U39C A65G U104C | 0 |
| U14A G48A A69G U134C | 0.54 |
| U47C U62C C71U A140G | 0.02 |
| C71U A79G A117G | 0.77 |
| C16A C18U A30G | 0.5 |
| U9G U119A A136G | 0.71 |
| A65U C113A A136C | 0.08 |
| C3U U45A C101U A141G | 1.19 |
| U12C G32A G34A U62A U87C | 0.18 |
| G32A U47C G60A U130C A141G | 0.04 |
| A42G A67G A136G | 0.92 |
| A124U A136G A140G | 1.17 |
| A69G U108G U143C | 0 |
| U20C A69C U132C | 0 |
| A6U U20A A69U U108C U109A | 0.19 |
